Source: the supplement of paper PMC3334620
Whole data set: some 33,000 sequences, median “E-score (-0.5 to 0.5)” near -0.056, cut for the highest 2% near 0.38. The list shows a part of the results.

Target: Stb4 (UniProt P50104)
Assay: PBM E-score (8-mer binding enrichment) (E-score (-0.5 to 0.5)); higher = stronger / more preferred TF binding; most listed sequences are background and not binding sites
Details: protein concentration: 200 nM; construct: GST-DNA-binding domain
Summary of the method: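 The E-score, a modified Wilcoxon-Mann-Whitney statistic, was computed by the Universal PBM Analysis Suite for every ungapped eight-base word pooled with its reverse complement. Scans behind it were normalised with masliner after bound GST-tagged yeast transcription factors were detected with fluorescent anti-GST. The proteins, at about 100-200 nM, had been applied to universal all-10-mer Agilent arrays made double-stranded by primer extension.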

Sequence | PBM E-score
GTAGGTGA | -0.139
CGTAAGCC | -0.0615
TCAGATGA | -0.133
AGTAATAG | -0.191
AGGGGCCA | -0.106
CGATGGCC | -0.0191
CTCGACTA | -0.177
CCGGTAAG | 0.286
TAACGCGA | -0.183
GCGCTCTA | -0.169
GATCGCGA | 0.0153
TGACGAAA | -0.207
CTGTACAA | -0.101
TACGGAGA | 0.0409
TATCTAAA | 0.0428
AGATTGTA | -0.149
AAAAAGCC | 0.186
ATGGGGAG | -0.169
GGTTTCGA | 0.0115
CGACATAG | -0.191
TGGCATAA | -0.035
GGGGCGAC | -0.162

Sequence | PBM E-score
CGTACGCA | -0.101
TCCTGCAA | -0.127
CTGGAGAC | -0.167
TGACTGCA | -0.125
AAAGGACG | -0.0909
AAAAATTG | 0.0569
TAGAAGAA | -0.0359
CGCCATAC | 0.0506
AGTTTTAT | 0.0949
CCGAAGTA | 0.418
CAAATAAC | -0.0404
AATCAACT | 0.0423
CGTTCTTA | 0.132
CAATGCCA | -0.241
ACATCGCC | 0.0301
AACCATTC | 0.0661
AAAACGTC | 0.021
CACATCGC | -0.191
TATGTACA | -0.166
GTCAAAAC | -0.0364
GATAGTAA | 0.0726
AGGCCCGC | 0.0202

Sequence | PBM E-score
AAAGCCAC | -0.21
CCCACTAG | -0.0405
GTGAGCTA | -0.202
TGCATCAA | -0.148
GGCGCATA | 0.0322
ATATAAAG | -0.0779
CATGAGAC | -0.0767
CTCTGAAG | -0.139
CAAGACCG | 0.0614
ACTGCCTC | -0.0245
TGGCCTAA | -0.234
AACCGTCT | 0.00908
ATCATCCA | -0.121
CTCAAGCC | 0.0055
CGGTGGAG | 0.121
GAGAGAGC | -0.196
CGGCCGAA | 0.314
AGCCTTAT | -0.103
GGGATCAA | 0.127
GACGGACA | 0.12
ATTATTTC | 0.224
AGGCCGTG | -0.0735

Sequence | PBM E-score
AAGTAATT | 0.108
CACAACGC | -0.00862
CCTCCCAG | -0.265
GAATGCGA | 0.0718
CTATCCAG | 0.0257
AGTAGCTA | 0.0856
GGTAGCAC | 0.0284
GTTTCGGA | 0.43
AGCATACA | -0.143
ATTTCAAA | -0.109
GGTGGGAA | 0.146
CCTCCGCC | 0.11
AATAGCTG | -0.0244
CACGCGCA | -0.126
CGAGATGC | 0.0535
ATCCTTGA | -0.11
AATTTCCG | 0.425
ATATCAGG | -0.241
ACCCTCAA | -0.15
GGGACCCA | 0.131
ATTGTCTC | 0.0102
CGCCATGA | -0.0878

Sequence | PBM E-score
TACTGTAA | -0.101
TGAAACCA | -0.0604
CAACTCGA | -0.205
AGTAGGCG | -0.169
CTATAGTA | 0.0285
ACGACTGA | -0.0836
AGGAGAAT | 0.0566
AGTTGATC | -0.103
ACTGCCAA | -0.0818
AGAATATC | 0.104
ACGAACGA | -0.0896
AAGGTCTC | -0.173
TTCGCAAA | -0.0518
AACCCCTG | -0.123
ATCTAAAC | 0.118
GCAACGAA | -0.162
AGACGTGA | -0.153
AACTGAGC | -0.0204
CCGATAGG | 0.291
ATCAATGG | -0.145
CGTCATGC | -0.169
AGACATGG | -0.121
